# Test results as given in the supplement of paper PMC10126150.
# Sequences with one replicate were seen in a single cluster, so their values are uncertain.
# Tested on: ATP
# Test: switch fluorescence ratio, 500 uM ATP over buffer (Cy3 cluster intensity, sum of 5 cycles each) (fold (ratio)); higher = stronger signal-on switching upon ATP binding; sequences stand for … in TCGTCGGCAGCGTCAGATGTGTATAAGAGACAGTTTTTTTTTTTTTTTTTTTTTTTTT…TC
# Conditions: aptamer strand: ATP DNA aptamer (quencher-CACCTGGGGGAGTATTGCGGAGGAAGG + anchor), 100 nM annealed; ATP concentration: 500 uM; one replicate
# Method in brief: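 After annealing to 100 nM quencher-labelled ATP aptamer, Cy3-labelled switching-strand clusters on a modified Illumina MiSeq flow-cell were imaged in selection buffer. A second image followed after 15 min with 500 uM ATP at 22 °C, and five such buffer/ATP cycles were done, each separated by NaOH stripping and re-annealing. The fluorescence ratio, averaged per switch-domain sequence, is summed target-cycle over summed buffer-cycle Cy3 intensity per cluster, with clusters outside 100-1000 RFU excluded.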
# 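Also: ATP exposure 15 min at 22 °C before imaging.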
row,Sequence,switch fluorescence ratio
1,CACGGGAAAG,1.01
2,ATCCCGTA,0.989
3,TCGTCTACAT,1.03
4,TAAGGGTT,1
5,GGCACGGGCA,1.04
6,CAGTCATAGG,1.01
7,GCGTTCGCAG,0.972
8,TTCTAGCTAG,0.981
9,CGTGCAGGAT,0.996
10,TTGGGTAAAG,0.988
11,CGTCAAGTTA,0.987
12,TAAGGTCAC,1
13,TAAACGTTCT,1.11
14,CACGTGTTAC,1.17
15,GGATCTGGCA,1.01
16,TGCGGTTGCT,0.962
17,ACAGGAGTGG,0.978
18,GGTCGGAGG,0.956
19,GAACTCAAGT,0.946
20,GGGCGTGAAA,0.997
21,CTTTGGCATG,1.03
22,TGAGGCAGAC,1.38
23,AAATGCAAC,1.1
24,AGGGATGAAT,0.966
25,AATTAAAAAC,0.945
26,TCACGATCGC,1.13

row,Sequence,switch fluorescence ratio
1,TCTATCGCTT,1.12
2,TGTGTTGTAA,0.987
3,CGAGTAGTTG,1.03
4,TGCCAACGAG,1.02
5,TGTGCCCCCG,1
6,TGCCTAAAGC,0.952
7,GAGTCGCGAG,1.11
8,TAGACCTTAC,3.15
9,CATGGGGACA,0.944
10,TGTTGGATGG,0.978
11,ATGGCCAGGG,1.05
12,TTCGCCTCTA,0.983
13,GCGTGAGAGC,1.15
14,ATATAGCAGC,1.01
15,CCGGGAACTT,1.02
16,TTGGTAGCAG,1
17,CTCTCGGCG,1.03
18,TATCGGCAGG,0.961
19,CACGACCTTC,1.66
20,GAGCAAGAAT,1.25
21,ATACGGCCAG,1.03
22,GACGTTGTTG,0.999
23,AATCAATTG,0.996
24,AAGCCATTAG,1.01
25,GAGCAAATAT,4.41
26,TTCGCATCCT,1.08

row,Sequence,switch fluorescence ratio
1,TAGGCTTATT,1.03
2,AACATGCTGA,1
3,ACGGAGCGAC,3.13
4,ACATTTTTT,1.03
5,AGAAGTGGGT,1.02
6,ATTCTGACGT,1.18
7,ACCGGCCAGG,1.06
8,TCGATGATTA,1.01
9,GACGGCGACG,0.939
10,GGCCTACTTT,1
11,CGCTTGGTGC,1.21
12,CCCGGGGATG,1.01
13,TGAATTATAA,1
14,TGTTCAATTA,0.985
15,AGCTCACACC,1.08
16,ATCTTAGATA,1.05
17,TCTCCTTGGC,1.1
18,GCTCGAAGAT,0.974
19,TAAGCGTTAT,1
20,GACATGGGAG,1.03
21,GCCCACTCGG,1.05
22,AAGCGTCGAA,0.961
23,AGGCGTTTAA,0.999
24,ATGAGACGCA,1.09
25,ACCTTTTTCT,0.989
26,ATGAGGGAGC,0.99

row,Sequence,switch fluorescence ratio
1,TAGTTGTATA,1.01
2,GGCTGAGTGT,1
3,TCCGGACGG,0.977
4,GAGTAACTCT,1.01
5,CGGTACGGTC,0.86
6,ATTAATTTGG,0.954
7,TAGACACGTA,1.12
8,GACAGATGAG,0.967
9,GTCACGGCGT,0.998
10,GGTTACTGCA,1.03
11,TGGCCTTACC,1.25
12,ATGTGATAAG,0.98
13,TCAAAAGTTA,0.982
14,GGTGTATCAG,1.01
15,AGGGGGTCGC,1.04
16,ATATGTTAAT,0.98
17,CGTTTCCGGA,0.896
18,ACGGGCGCGT,1.02
19,GGCCACTGGC,1.09
20,CCGGATGGGC,1.08
21,GAATAGCCTT,1.02
22,TAATTTAGTC,1.05
23,CGGGCCAAG,0.919
24,GCAGTGCGGG,1.03
25,CCTCTCACCT,1.31
26,TGATGGTTGC,0.978

row,Sequence,switch fluorescence ratio
1,TGGCTGATAC,2.29
2,CCACGGTGAT,1.81
3,TTTGAGGCGG,0.971
4,TGTTACACGG,0.954
5,TGCAGCTAAC,2.67
6,CATGGCTTAA,0.989
7,GGTTTACTCC,1.04
8,TACAAGGATA,1.03
9,GCTATTGGTT,0.946
10,CAGGTATGCA,1
11,ATGATTGTCA,0.997
12,TCCCGTTCTG,1.01
13,AATAGGAGTG,0.989
14,AATGGATCAA,0.985
15,TCAACGCTTT,1.05
16,CGGCTCTTTT,1.05
17,TAATAAGAGG,1.02
18,TAGGAATAAG,1.04
19,GTGGCCGAAA,0.99
20,CCGCTAATGT,3.84
21,GCCAGACGGC,1.01
22,AAGTGCGAAT,0.982
23,ACTTTGATTC,1.01
24,GAGGTATCTA,0.99
25,TCAAAGGGG,1
26,AGATATATTT,1

row,Sequence,switch fluorescence ratio
1,TTGATGTGAT,1
2,ATTTTCGT,0.95
3,TAGTGTCCTT,0.977
4,CTCGTTCGCT,1.08
5,TCACTAGTTG,1.01
6,ACATAATGGT,1.01
7,ATGCCTGGGG,1.69
8,CGTGCCGGTT,1.08
9,ACGACATGAA,1.22
10,TATTATCCTG,1.01
11,AACTTGCAAT,0.999
12,GGTAAGTAAG,1.03
13,GCGATCATTC,0.997
14,TAGAGTATAG,0.995
15,AAATCAGTTG,1.01
16,ACTTACTGAT,1.19
17,GCCATAGCTC,1.05
18,CCGCTCCGGC,1.53
19,GGCGCTAACC,1.03
20,TAGCTGGGTT,0.988
21,GATGTTGTCA,0.976
22,AACACGATAC,1.95
23,TGCTGACGAT,1.08
